Data on 40 cell lines can be found in the supplement of paper PMC4967469.

What is called IC50 is the concentration at which inhibition is half-maximal.

IC50 is the fitted dose that halves viability relative to control wells, and lower means more sensitive; a fit beyond the top or the lowest dose is shown as a bound at that dose. The AUC spans the tested range (256-fold, ending at the top dose) of the same fit; values near 1 show little effect. Where the top dose is marked as inferred, it is not printed in the source and was worked back from the curve model.

Compound in one test: CC(C)=CC[C@@H](O)C1=CC(=O)c2c(O)ccc(O)c2C1=O [Shikonin]
The experiment in a line: Viability of human cancer cell lines after 72 h of drug (GDSC screen). The following applies: top dose 16 µM; top dose inferred. How it is done: (§1)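 Human cancer cell lines in 384-well plates, medium with 10% serum, drug for 72 h over a 256-fold dose range (nine 2-fold or five 4-fold steps up to the top dose). Adherent lines were fixed and stained with the nucleic acid dye Syto60, suspension lines read with resazurin; signal relative to control wells, capped at 0 and 100%. One two-parameter sigmoid per drug and line, fitted in a mixed model over all curves with the slope shared within a line.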
For A2058 (melanoma, adherent), the AUC was determined as 0.489 and the IC50 was determined as 934 nM.

With ABC-1 (lung adenocarcinoma, adherent), the AUC was 0.451 and the IC50 came out at 717 nM.

On to “DMS-53 (small cell lung carcinoma, adherent)”, for which the AUC turned out to be 0.67 and the IC50 came to 3090 nM.

As for “EPLC-272H (lung squamous cell carcinoma, adherent)”, the AUC worked out at 0.628 and the IC50 worked out at 2360 nM.

For the cell line G-MEL (melanoma, adherent), the AUC was 0.393 and the IC50 turned out to be 510 nM.

As for H2722 (mesothelioma, adherent), the AUC came to 0.584 and the 50% inhibitory concentration (IC50) stood at 1780 nM.

Turning to H2803 (mesothelioma, adherent), the AUC was determined as 0.512 and the IC50 was 1080 nM.

For the cell line H2804 (mesothelioma, adherent), the AUC was determined as 0.634 and the IC50 is 2440 nM.

For HSC-4 (head and neck, adherent), the AUC stood at 0.544 and the IC50 came to 1370 nM.

As for Hs940-T (melanoma, adherent), the AUC is 0.27 and the IC50 amounted to 189 nM.

With MDA-MB-175-VII (breast, adherent), the AUC stood at 0.608.

With “NCI-H196 (small cell lung carcinoma, adherent)”, the AUC turned out to be 0.506 and the IC50 amounted to 1040 nM.

“NCI-H292 (lung adenocarcinoma, adherent)”: the AUC was determined as 0.418 and the IC50 was 566 nM.

As for “NCI-H441 (lung adenocarcinoma, adherent)”, the AUC stood at 0.74 and the IC50 came to 6610 nM.

“NCI-H1915 (large cell lung carcinoma, adherent)”: the AUC worked out at 0.699 and the IC50 came out at 3680 nM.

“NCI-H2122 (lung adenocarcinoma, adherent)”: the AUC came to 0.756 and the IC50 turned out to be 5160 nM.

As for SCC-4 (head and neck, adherent), the AUC stood at 0.46 and the IC50 was 763 nM.

On to SK-CO-1 (large intestine, adherent), for which the AUC amounted to 0.622 and the IC50 turned out to be 2120 nM.

For the cell line T-24 (bladder, adherent), the AUC was found to be 0.71 and the concentration for half-maximal inhibition (IC50) worked out at 3780 nM.

As for U-2-OS (osteosarcoma, adherent), the AUC was 0.772 and the IC50 was determined as 6750 nM.

Take VMRC-MELG (melanoma, adherent): the AUC was determined as 0.832 and the IC50 worked out at 10900 nM.

WM278 (melanoma, adherent): the AUC was 0.439 and the IC50 amounted to 668 nM.

Compound in a further test: CNC(=O)c1ccc(Nc2cc(Nc3ccccc3S(=O)(=O)C(C)C)c3cc[nH]c3n2)nc1 [HG-5-113-01]
The test is described as above. The conditions noted are these: top dose 10 µM; top dose inferred. The method, then:
as §1
Consider A2058 (melanoma, adherent), for which the AUC turned out to be 0.738 and the IC50 was found to be 2730 nM.

As for ABC-1 (lung adenocarcinoma, adherent), the AUC came to 0.562 and the IC50 is 955 nM.

Consider “DMS-53 (small cell lung carcinoma, adherent)”, for which the AUC was 0.891 and the IC50 is > 10000 nM.

Regarding DOV13 (ovary, adherent), the AUC was found to be 0.588 and the IC50 is 1130 nM.

Take “EMC-BAC-1 (lung adenocarcinoma, adherent)”: the AUC was 0.671 and the IC50 is 2010 nM.

Turning to “EMC-BAC-2 (lung adenocarcinoma, adherent)”, the AUC worked out at 0.633 and the IC50 was determined as 1560 nM.

“EPLC-272H (lung squamous cell carcinoma, adherent)”: the AUC turned out to be 0.739 and the IC50 turned out to be 3330 nM.

FLO-1 (oesophagus, adherent): the AUC was 0.672 and the IC50 amounted to 2350 nM.

For the cell line G-MEL (melanoma, adherent), the AUC was 0.775 and the IC50 is 3900 nM.

H2722 (mesothelioma, adherent): the AUC came out at 0.782 and the IC50 was 5030 nM.

In the case of H2803 (mesothelioma, adherent), the AUC was determined as 0.871 and the half-inhibitory concentration (IC50) was > 10000 nM.

Take H2804 (mesothelioma, adherent): the AUC was found to be 0.824 and the 50% inhibitory concentration (IC50) stood at 6750 nM.

Regarding HSC-4 (head and neck, adherent), the AUC was found to be 0.625 and the IC50 came out at 1550 nM.

As for Hey (ovary, adherent), the AUC turned out to be 0.743 and the IC50 amounted to 2940 nM.

Regarding Hs940-T (melanoma, adherent), the AUC is 0.868 and the IC50 is > 10000 nM.

Turning to JHOS-2 (ovary, adherent), the AUC turned out to be 0.761 and the IC50 was 4090 nM.

Turning to JHOS-3 (ovary, adherent), the AUC is 0.863 and the IC50 was > 10000 nM.

Take MDA-MB-175-VII (breast, adherent): the AUC came to 0.949 and the IC50 was > 10000 nM.

For the cell line NCC021 (kidney, adherent), the AUC was found to be 0.857 and the IC50 is > 10000 nM.

Consider “NCI-H196 (small cell lung carcinoma, adherent)”, for which the AUC worked out at 0.946 and the concentration for half-maximal inhibition (IC50) was > 10000 nM.

For “NCI-H292 (lung adenocarcinoma, adherent)”, the AUC was determined as 0.613 and the IC50 turned out to be 1370 nM.

Take “NCI-H441 (lung adenocarcinoma, adherent)”: the AUC is 0.818 and the concentration for half-maximal inhibition (IC50) came out at 8910 nM.

In the case of “NCI-H1915 (large cell lung carcinoma, adherent)”, the AUC was 0.887 and the IC50 was > 10000 nM.

For “NCI-H2122 (lung adenocarcinoma, adherent)”, the AUC is 0.648 and the IC50 was found to be 1560 nM.

Consider OACp4C (oesophagus, adherent), for which the AUC amounted to 0.712 and the IC50 is 2850 nM.

For the cell line OV-7 (ovary, adherent), the AUC turned out to be 0.563 and the IC50 came to 1010 nM.

With OV-17R (ovary, adherent), the AUC was determined as 0.893 and the IC50 was > 10000 nM.

Consider OV-56 (ovary, adherent), for which the AUC is 0.878 and the 50% inhibitory concentration (IC50) turned out to be 9480 nM.

Turning to OVCA420 (ovary, adherent), the AUC was 0.82 and the IC50 turned out to be 8450 nM.

Take OVCA433 (ovary, adherent): the AUC worked out at 0.709 and the IC50 is 2610 nM.

With OVK-18 (ovary, adherent), the AUC was determined as 0.811 and the IC50 was 6010 nM.

In the case of PWR-1E (prostate, adherent), the AUC was 0.747 and the IC50 is 3190 nM.

Take SCC-4 (head and neck, adherent): the AUC was found to be 0.78 and the IC50 turned out to be 4940 nM.

Regarding SK-CO-1 (large intestine, adherent), the AUC stood at 0.69 and the IC50 came out at 2050 nM.

As to SK-GT-2 (stomach, adherent), the AUC amounted to 0.729 and the IC50 stood at 2910 nM.

For the cell line T-24 (bladder, adherent), the AUC is 0.827 and the IC50 was 5760 nM.

With U-2-OS (osteosarcoma, adherent), the AUC was determined as 0.675 and the IC50 was found to be 2020 nM.

On to UWB1.289 (ovary, adherent), for which the AUC was determined as 0.856 and the IC50 was > 10000 nM.

Turning to VMRC-MELG (melanoma, adherent), the AUC turned out to be 0.917 and the IC50 was > 10000 nM.

Turning to WM278 (melanoma, adherent), the AUC came out at 0.805 and the IC50 was found to be 5830 nM.

Compound in a further test: NC(=O)c1ccc(N(C(N)=O)c2c(F)cccc2F)nc1-c1ccc(F)cc1F [VX-702]
Described as above. The following applies: top dose 2 µM; top dose inferred. The method, then:
as §1
Consider A2058 (melanoma, adherent), for which the AUC worked out at 0.97 and the IC50 was > 2000 nM.

In the case of ABC-1 (lung adenocarcinoma, adherent), the AUC came to 0.982 and the half-maximal inhibitory concentration (IC50) is > 2000 nM.

For “DMS-53 (small cell lung carcinoma, adherent)”, the AUC was found to be 0.988 and the 50% inhibitory concentration (IC50) was > 2000 nM.
